Laboratory results published in PubChem BioAssay AID504832 (National Center for Advancing Translational Sciences (NCATS), 2011).
Out of some 310,000 compounds screened, about 18,000 (5.8%) were called active. Inconclusive results, whose numbers are uncertain, are shown with a selection of clear calls. Calls follow the shape of the dose curve; as a rule, active = well fitted inhibition curve with a large enough effect; inconclusive = small, poorly fitted or top-dose-only effect, or another doubt; inactive = no such curve, though single readings can be large or run the other way. No potency is given beside an inconclusive call; the fits are too rough.

assay: Primary qHTS for delayed death inhibitors of the malarial parasite plastid, 48 hour incubation; conditions: P. falciparum luciferase growth in erythrocytes; series mostly up to 28.7 µM; activity change, negative = inhibition: at the top concentration
Source text: The goal of this screen is to discover new antimalarial compounds that act by inhibiting the development of the apicoplast in the malarial parasite Plasmodium falciparum. The biochemical processes that make this organelle essential for erythrocytic stage parasites are not well understood. However, antibiotics such as azithromycin and tetracycline, which target the apicoplast translational machinery, have a potent antimalarial effect.
We have developed a cell-based assay that measures parasite growth based on the expression of an integrated copy of a firefly luciferase reporter. To detect small molecules that cause this "delayed death" phenotype, erythrocytes infected with the luciferase-expressing parasites were incubated with compounds for either one or two generations, corresponding to 48 and 96 hours, respectively. Compounds that inhibit parasite growth in the second generation, but not the first, should be enriched in antimalarials that target the apicoplast. Growth inhibition is detected by a decrease in luciferase activity.
Assay Provider: David Fidock and Eric Ekland, Columbia University
Keywords: NIH Roadmap, MLPCN, MLI, MLSMR, qHTS, NCGC, qHTS, malaria, luciferase, viability
Four microliters of culture medium (RPMI 1640 with 0.5% w/v Albumax (GIBCO), 24 mM sodium bicarbonate and 10 ug/mL gentamycin) were dispensed by a Multi-drop Combi into white solid 1536-well plates (Grenier) and 23 nL compound was added by a pin tool. Four microliters of infected erythrocytes (2% hematocrit, 0.1% parasitemia final concentration) in culture medium were dispensed and the plates incubated for 48 hours at 37 C in 5% CO2. Two microliters of luciferase detection reagent was added and luminescence was detected by a ViewLux (PerkinElmer) reader.
% is scaled to controls: 0 for no effect and ±100 for the full control effect; potency is read from the fitted curve at half-maximal effect; tags tell the direction and shape of the fitted curve.

SMILES | Potency | activity change, negative = inhibition
Cc1csc(C(=O)O)c1NC(=O)c1c(Cl)cccc1Cl | inconclusive [inhibitor, single point] | 
COc1ccc(N(CC(=O)Nc2ccc(OC)c(Cl)c2)S(=O)(=O)c2c(C)noc2C)cc1 | active: 8.28 µM | 
CC1Cc2ccccc2N1C(=O)COC(=O)c1cc(Br)ccc1O (stereo not drawn) | inconclusive [inhibitor, partial curve, poor fit] | 
COc1ccc(-c2csc(Nc3ccccc3)n2)cc1 |  | inactive: 54.5%
COc1ccc(OCc2nnc(NC(=O)Nc3ccccc3F)s2)cc1 | inconclusive [inhibitor, single point] | 
O=C(Cn1cnc2c(cnn2-c2ccc(F)cc2)c1=O)N1CCN(c2ccccc2)CC1 | inconclusive [inhibitor, single point] | 
O=C(ONC1=NCCCCC1)c1c(F)cccc1F | active: 13.1 µM | 
Cc1ccc(NC(=O)C2CCN(S(=O)(=O)c3ccc4c(c3)OCCO4)CC2)nc1 | inconclusive [inhibitor, partial curve, poor fit] | 
Cc1noc(C)c1CSCC(=O)N(CC(C)C)c1c(N)n(Cc2ccccc2)c(=O)[nH]c1=O | inconclusive [inhibitor, single point] | 
CC1(c2cc([N+](=O)[O-])cc([N+](=O)[O-])c2)CC(C)(C)N(C(=O)c2ccccc2)c2ccccc21 (stereo not drawn) | active: 2.33 µM | 
CC(C)C(=O)N1CCN(c2ccccc2NC(=O)c2ccc(C#N)cc2F)CC1 | inconclusive [inhibitor, single point] | 
COc1ccc(NC(=O)CN(C)C(=O)c2c(-c3c(F)cccc3Cl)noc2C)cc1 | inconclusive [inhibitor, partial curve] | 
CCCCNC(=O)C1CCC(CNS(=O)(=O)c2cccc3nsnc23)CC1 (stereo not drawn) |  | inactive: -11.4%
COc1ccc(CCNC(=O)C(=O)NCCC2CCCCN2S(=O)(=O)c2ccccc2)cc1 (stereo not drawn) | active: 14.7 µM | 
O=C1N/C(=N\N=C\c2ccccn2)SC1Cc1cccc(SC(F)F)c1 (stereo not drawn) | inconclusive [inhibitor, single point] | 
N#Cc1ccccc1S(=O)(=O)N1CCN(C(=O)CN2CCCSc3ccccc32)CC1 | inconclusive [inhibitor, single point] | 
Cc1ccc(C(=O)C(OC(=O)COc2ccccc2C)c2ccccc2)cc1 (stereo not drawn) |  | inactive: 30.8%
COc1ccccc1C(=O)N/C(=C\c1cn(S(=O)(=O)N(C)C)c2ccccc12)C(=O)NCCCN1CCOCC1 | inconclusive [inhibitor, partial curve] | 
